From the supplement of paper PMC10126150
Sequences with one replicate were seen in a single cluster, so their values are uncertain.

What follows are sequences tested on ATP (assay: switch fluorescence ratio, 500 uM ATP over buffer (Cy3 cluster intensity, sum of 5 cycles each) (fold (ratio)); higher = stronger signal-on switching upon ATP binding; sequences stand for … in TCGTCGGCAGCGTCAGATGTGTATAAGAGACAGTTTTTTTTTTTTTTTTTTTTTTTTT…TC). Settings: aptamer strand: ATP DNA aptamer (quencher-CACCTGGGGGAGTATTGCGGAGGAAGG + anchor), 100 nM annealed; ATP concentration: 500 uM; one replicate.
Method in brief: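 Cy3-labelled switching-strand clusters on a modified Illumina MiSeq flow-cell were annealed to 100 nM quencher-labelled ATP aptamer and imaged first in selection buffer, then after 15 min with 500 uM ATP at 22 °C. NaOH stripping and re-annealing separated each of five buffer/ATP cycles, and clusters outside 100-1000 RFU were excluded. The fluorescence ratio sums target-cycle Cy3 intensity over buffer-cycle Cy3 intensity per cluster and averages it per switch-domain sequence.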
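Note: ATP exposure 15 min at 22 °C before imaging.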

Sequence | switch fluorescence ratio
GCACCTGATT | 0.997
GCACGAGAGA | 1.01
GCACGGCGTC | 1.06
GCACGTAGAA | 1.11
GCACGTCACC | 1.67
GCACTAATAA | 1.05
GCACTATCTA | 1.03
GCACTCTTCT | 1.06
GCACTCTTTT | 0.983
GCACTGGCAG | 1.04
GCACTGGGGG | 1
GCACTGGTGA | 1.32
GCACTTTCAT | 1.01
GCAGACC | 1.05
GCAGAGAGGG | 0.991
GCAGAGAGTT | 0.984
GCAGATAAGT | 1.05
GCAGATGCT | 0.984
GCAGATTAGT | 0.944
GCAGCAGGAA | 2.15
GCAGCAGTCG | 1.23
GCAGCCACCC | 1.18
GCAGCCATGA | 1.06
GCAGCCCGC | 1.04
GCAGCGAAAG | 1.06

Sequence | switch fluorescence ratio
GCAGCGAACG | 1.19
GCAGCGATTG | 1.34
GCAGCGGGCA | 0.985
GCAGGACAAG | 1.01
GCAGGATCCC | 1.07
GCAGGATTAG | 0.949
GCAGGCACGT | 1
GCAGGGAA | 0.998
GCAGGGAGT | 1
GCAGGGCTTC | 1
GCAGGGGCCG | 0.905
GCAGGGGCGC | 1.11
GCAGGTGAAA | 1.18
GCAGTCAGTT | 1.03
GCAGTCATG | 0.983
GCAGTCATGC | 0.97
GCAGTCGGGC | 1.01
GCAGTGCATG | 0.967
GCAGTGTGGT | 1.07
GCAGTTGCG | 1.03
GCAGTTGCGG | 1.02
GCATAC | 4.02
GCATAGATTT | 0.988
GCATAGCCCG | 1.03
GCATAGGCGT | 0.979

Sequence | switch fluorescence ratio
GCATAGGGGT | 1.05
GCATATCATC | 0.981
GCATATCGGC | 0.992
GCATATTTCA | 0.99
GCATCAATAA | 1.1
GCATCAGATT | 1
GCATCCTTTA | 1.04
GCATCTCTAG | 1.01
GCATGAGGCC | 0.962
GCATGCATTA | 1.03
GCATGCTGAT | 1
GCATGGACAA | 0.989
GCATGGTCAT | 0.994
GCATGTATTC | 1.06
GCATGTGATG | 1.03
GCATTAATCA | 1.01
GCATTCGGGT | 1.01
GCATTCTCTT | 1.11
GCATTCTTCT | 0.986
GCATTCTTGT | 1.02
GCATTGATGG | 1.01
GCATTGGTAG | 1.04
GCATTTGCAA | 1
GCCAAACGAT | 1.02
GCCAACTTCT | 0.975

Sequence | switch fluorescence ratio
GCCAACTTGG | 0.992
GCCAAGTCGG | 0.96
GCCAATGGTG | 1.17
GCCACATGTG | 1
GCCACATTGT | 0.998
GCCACATTTC | 1.06
GCCACTGAAG | 1.01
GCCAGCTTGG | 0.977
GCCAGTAGCT | 1.01
GCCATACAAC | 1.09
GCCATAGCGG | 0.971
GCCATATCGT | 0.993
GCCATATGGA | 0.944
GCCATCATGA | 0.997
GCCATCGCAA | 2.22
GCCATGAGTG | 1.01
GCCATGGGGC | 1.01
GCCCACAAC | 1.57
GCCCATCGAT | 0.967
GCCCCAAACG | 0.998
GCCCCAGTTG | 2.52
GCCCCCATAA | 1.07
GCCCGAATTC | 1.08
GCCCGCCCAT | 1.13
GCCCGTACTA | 1.04
